# Experimental data as given in PMC4336329 (PLoS ONE, 2015).
# Screen size: about 310,000 compounds; about 14,000 (4.5%) showed an effect of 50% or more. Effects have a minus sign here. The list shows a part of the results.
# Target: human ether-à-go-go-related gene (hERG) potassium channel (human, UniProt Q12809)
# Assay: primary screen, population patch clamp on CHO cells stably expressing hERG
# 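Note: peak tail current of the secondary pulse compared with the same well before compound.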
# Chain of human ether-à-go-go-related gene (hERG) potassium channel (Q12809 whole entry, looked up): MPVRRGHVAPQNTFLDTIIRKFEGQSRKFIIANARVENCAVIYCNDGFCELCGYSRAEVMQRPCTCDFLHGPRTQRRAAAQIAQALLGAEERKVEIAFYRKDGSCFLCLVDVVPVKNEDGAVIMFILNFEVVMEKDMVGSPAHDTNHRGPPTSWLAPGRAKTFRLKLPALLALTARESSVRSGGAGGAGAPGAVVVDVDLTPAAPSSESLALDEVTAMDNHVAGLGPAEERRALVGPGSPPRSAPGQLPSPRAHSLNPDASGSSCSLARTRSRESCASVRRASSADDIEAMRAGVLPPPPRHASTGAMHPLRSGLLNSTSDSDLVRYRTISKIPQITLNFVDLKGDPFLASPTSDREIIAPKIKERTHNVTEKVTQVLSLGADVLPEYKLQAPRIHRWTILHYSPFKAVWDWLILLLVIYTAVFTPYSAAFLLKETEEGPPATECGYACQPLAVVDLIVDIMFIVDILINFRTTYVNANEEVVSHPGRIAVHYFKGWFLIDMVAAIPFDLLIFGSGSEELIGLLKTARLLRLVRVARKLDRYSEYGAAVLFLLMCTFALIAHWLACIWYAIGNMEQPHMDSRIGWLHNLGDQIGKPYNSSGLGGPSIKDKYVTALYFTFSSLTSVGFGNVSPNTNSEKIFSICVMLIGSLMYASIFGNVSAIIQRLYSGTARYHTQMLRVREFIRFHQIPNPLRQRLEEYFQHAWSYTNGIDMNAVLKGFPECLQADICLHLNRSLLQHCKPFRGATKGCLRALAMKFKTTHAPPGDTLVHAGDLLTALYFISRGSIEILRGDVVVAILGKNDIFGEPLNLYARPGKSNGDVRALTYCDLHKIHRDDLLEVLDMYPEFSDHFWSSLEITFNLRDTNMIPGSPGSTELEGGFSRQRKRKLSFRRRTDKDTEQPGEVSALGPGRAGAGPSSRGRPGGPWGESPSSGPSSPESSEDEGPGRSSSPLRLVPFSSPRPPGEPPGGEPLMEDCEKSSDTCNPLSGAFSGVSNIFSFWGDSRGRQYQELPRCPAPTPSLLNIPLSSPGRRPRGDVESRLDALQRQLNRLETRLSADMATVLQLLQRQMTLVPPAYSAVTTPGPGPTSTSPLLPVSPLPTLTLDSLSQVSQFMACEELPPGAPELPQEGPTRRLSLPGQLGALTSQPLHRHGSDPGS
row,SMILES,"hERG current change (%, negative = inhibition) at 10uM [%]"
1,CCN(Cc1ccccc1)C1CCN(Cc2ccc(SC)cc2)CC1.O=C(O)C(=O)O,-69.3
2,COc1ccc(-c2ncc(CN3CCC(CO)(Cc4cccc(OC)c4)CC3)cn2)cc1,-4.79
3,O=C(CNCc1ccccc1Cl)Nc1ccc(C(=O)N2CCCCC2)cc1.O=C(O)C(=O)O,7.9
4,CCCCN(CCCC)CCCN1CC(=O)N2[C@@H](Cc3c([nH]c4ccccc34)C2(C)C)C1=O,-73.2
5,Cc1nc(Cl)c(C(=O)Nc2cccc(F)c2)c(C)c1Cl,-5.95
6,N#Cc1c(-c2ccc(F)cc2)c2c([nH]c1=O)-c1ccccc1OC2,13.7
7,CCCCC(C(=O)NC1CCCC1)N(C(=O)c1snc(C(N)=O)c1N)c1ccc(C)cc1 (stereo not shown),24.1
8,O=C(O)CCn1ccc2cc(S(=O)(=O)N3CCCCCC3)ccc21,12.5
9,Cc1noc(C(F)(F)F)c1C(=O)NNC(=O)c1ccccc1,9.91
10,CCc1cc2cc(C)ccc2nc1SCC(=O)NC1CCCC1,-4.58
11,CCOC(=O)c1c(C2CC2)csc1NC(=O)COC(=O)c1cc(OC)c(OC)cc1[N+](=O)[O-],15.1
12,Cc1cc(C)cc(C(=O)NC(=S)Nc2ccc(-c3cc4ccccc4oc3=O)cc2)c1,5.88
13,O=C(NCCc1ccccc1)C(=O)NCC1OCCN1S(=O)(=O)c1cc(F)ccc1F (stereo not shown),-36.7
14,Cc1cc(NNC(=O)Nc2cccc(Cl)c2)nc2c1c(C)nn2C,3.56
15,COc1ccc(-c2cc(C(=O)NCC(C)C)no2)cc1,-2.68
16,CCOC(=O)C1(Cc2cccc(OC)c2)CCN(Cc2cccc3c2OCO3)CC1,-39.4
17,O=C(NCC1CCCO1)c1ccc2c(c1)C(=O)N(c1cccc([N+](=O)[O-])c1)C2=O (stereo not shown),16.8
18,COc1ccc(NC(=O)Nc2cccs2)cc1OC,7.26
19,COC(=O)CNC(=O)CN(c1ccc(OC)cc1OC)S(=O)(=O)c1ccccc1,13.4
20,COC(=O)C(NC(=O)c1ccccc1)(Nc1nc(C)cs1)C(F)(F)F (stereo not shown),17.9
21,O=C(/C(=C/c1cccc(Cl)c1)c1nc2ccccc2[nH]1)c1ccccc1,10.7
22,COc1cc(C(=O)NC2CC3CCCC(C2)N3Cc2ccccc2)cc(OC)c1OC (stereo not shown),8.89

row,SMILES,"hERG current change (%, negative = inhibition) at 10uM [%]"
1,Cc1ccc(C2CC(C(F)F)n3ncc(C(=O)Nc4c(C)nn(Cc5c(F)cccc5Cl)c4C)c3N2)cc1 (stereo not shown),8.9
2,O=C(O)CCC(=O)NNC(=O)COc1cccc(Cl)c1,2.84
3,O=C(Nc1ccccc1C1CC1)c1cccs1,-0.689
4,c1ccc(Cn2ncc3c(N4CCN(C(c5ccccc5)c5ccccc5)CC4)ncnc32)cc1,31.1
5,Cc1ccc(S(=O)(=O)N/N=C/c2ccc(C#N)cc2)cc1,14.5
6,CNC(=O)c1ccsc1NC(=O)c1sc2ccccc2c1Cl,20.4
7,COC(=O)C1=C(C)NC(=S)NC1/C=C/c1ccccc1 (stereo not shown),2.77
8,COc1cc(CNc2ccc(CNc3ncn[nH]3)cc2)cc(Cl)c1OCc1ccccc1,21.2
9,Cc1c(/C=N/O)c2ccccn2c1C=O,24.4
10,Cc1[nH]ccc(=O)c1Oc1ncc(C(F)(F)F)cc1Cl,16.3
11,NC(=O)Cn1cc(/C=N\NS(=O)(=O)c2ccc(F)cc2)c2ccccc21,11.5
12,CC1CCCC(C)N1C(=O)CN1CCN(c2nc(-c3ccc(F)cc3)cs2)CC1 (stereo not shown),-38.5
13,COc1ccc(C(C)=O)cc1COc1ccccc1[N+](=O)[O-],25
14,Cc1ccc(-n2c(SCc3nc4ccccc4[nH]3)nnc2-c2ccncc2)cc1,-39.5
15,O=C(Nc1cc2c(cc1C(=O)O)OCCCO2)c1ccc(C(F)(F)F)cc1,40.4
16,Cl.OC1(c2cccnc2)CCN(Cc2nnnn2C2CCCCC2)CC1,14.8
17,O=S(=O)(NCc1ccco1)c1ccccc1Br,-0.486
18,CC(=O)NS(=O)(=O)c1ccc2c(c1)Cc1cc(S(=O)(=O)NC(C)=O)ccc1-2,19.8
19,O=C(Nc1ccc(F)cc1F)c1cc2ncc(CCCl)cn2n1,-12.3
20,CN(C)CCNC(=O)c1ccc2c(c1)N(Cc1ccc(F)cc1)CCS2,-32.8
21,O=C(Nc1ncc(S(=O)(=O)c2ccc([N+](=O)[O-])cc2)s1)c1ccc2ccccc2c1,19
